In ChEMBL document CHEMBL4888484, “Replenishing the malaria drug discovery pipeline: Screening and hit evaluation of the MMV Hit Generation Library 1 (HGL1) against asexual blood stage Plasmodium falciparum ,using a nano luciferase reporter read-out” (2022):
The whole screen tested about 150,000 compounds, of which about 540 (0.36%) showed an effect of 50% or more. This is one part of the list.

What follows are molecules tested on Plasmodium falciparum (assay: Primary screen in NF54 nanoGlo assay, in single point, at 2uM, 72h; a lower Z score goes with more inhibition). Details: timepoint 72 hour.
Assay type: functional, Erythrocyte

Compound	% Inhibition [%]	Z score
COc1cccc(CO[C@@H]2CN(C(=O)Cc3cc(F)cc(F)c3)CC(=O)N(Cc3ccccn3)C2)c1	-11	1.4
CC(C)c1cc([C@@H]2CCCN2S(=O)(=O)c2cccc3nsnc23)no1	-4	0.53
Cc1cc2c(cc(C(=O)N3CCC(C(=O)NCCc4ccc(Cl)cc4)CC3)n2Cc2c(F)cccc2Cl)o1	-9	1.1
CN1C(=O)c2ccc(NC(=O)c3sc4ccccc4c3Cl)cc2C1=O	-14	2.57
C[C@@H](O)CNC(=O)NCCN1CCc2c(Cl)cccc2C1	-6	0.77
CS(=O)(=O)NCCNC(=O)NCc1nc(Cc2cccs2)no1	-11	1.63
C[C@@H](CNC(=O)Nc1ccn(CC(F)F)n1)N1CCOCC1	2	-0.3
C[C@H]1CN(C(=O)COc2cc(Cl)c(Cl)cc2Cl)CCC1=O	31	-3.52
Cc1noc(-c2ccc(S(=O)(=O)NCCOc3ccccc3F)o2)c1C	2	-0.29
CCOC[C@H]1CCN(C(=O)c2coc3ccccc23)C1	4	-0.63
CC(C)[C@H]1CN(C(=O)Nc2ccc(F)cc2F)C[C@@H]1N(C)C	-6	1.06
CC(C)(C)OC(=O)NCc1ccc(C#N)c(F)c1	-2	0.32
O=C(NS(=O)(=O)CC1CCOCC1)c1conc1-c1ccc(Cl)cc1	-14	1.36
Cc1ccc(-c2ccc(=O)n(CC(=O)NC[C@H]3CCCO3)n2)c(C)c1	0	0.08
Cc1ncc(C(=O)N[C@H]2CC23CCOCC3)n1C	-10	0.99
O=C(Nc1nc(-c2ccccc2)cs1)C1CC2C=CC1C2 (stereo not drawn)	8	-1.04
Cc1nnc(CNC(=O)c2ccc(OC(C)C)cc2Cl)s1	-2	0.34
Cc1cccc(NC(=O)N2CCC[C@H](Cn3c(C4CC4)nc4cccnc43)C2)c1C	-15	2.31
C[C@@H](CNC(=O)COC1CCCC1)Oc1ccccc1	-5	0.54
Cc1cc(C)cc(C(=O)N2CCN3CCOC[C@]3(CO)C2)c1	-19	2.05
CN(C(=O)[C@@H]1C[C@H]1c1cnn(C)c1)c1cccc2ncccc12	-31	3.69

Compound	% Inhibition [%]	Z score
Cc1ccc(NC(=O)C[C@H]2COc3ccc(Cl)cc3NC2=O)cc1C	-14	1.7
Cc1ccc(F)c(CC(=O)N2CCO[C@@H](COCC3CC3)C2)c1	2	-0.37
Cc1nnc(NC2CCCCCCC2)[nH]c1=O	-1	0.19
CCOC(=O)c1[nH]c(CN(Cc2ccc(OC)cc2)S(=O)(=O)c2ccc(Cl)cc2)c(C)c1C	2	-0.19
CC(=O)c1cccc(NC(=O)Cn2c(=O)n(CCc3ccccc3)c(=O)c3ccccc32)c1	36	-4.11
CC(C)(C)C1CCC(CC(=O)O)(n2cnnn2)CC1 (stereo not drawn)	0	-0.02
O=C(c1cc(Cl)cc(Cl)c1)N1CCN(c2nc(CN3CCN(c4ccccc4F)CC3)cc(=O)[nH]2)CC1	-5	0.74
CCN(Cc1ncc(C)o1)c1cccc(CO)c1	-15	1.37
CC1NC(=O)CCC1NC(=O)N1CCCC1(C)C (stereo not drawn)	-7	0.93
COc1ccc(C(=O)N2CCCC2)c(OC2CCN([C@@H](C)CCc3ccccc3)CC2)c1	-10	1.52
CCOC(=O)[C@]1(F)CN(C(=O)c2nc(C)oc2C)CC12COC2	-6	0.69
O=C([C@@H]1CN(S(=O)(=O)c2ccccc2Cl)CCO1)N1CCC(Oc2ccc(Cl)cn2)CC1	1	-0.16
Cc1noc(-c2ccccc2Cl)c1C(=O)N[C@@H](C)c1ccccc1	-9	1.22
Cc1nc(Nc2ccc(F)cc2)nc2c1nnn2-c1ccc(F)cc1	28	-3.75
Cc1cc(Cl)c2ccccc2c1NC(=O)NC1CCN2CCCCC12 (stereo not drawn)	-4	0.82
O=S(=O)(Nc1ccc(Br)c(C(F)(F)F)c1)c1cccc(-n2cnnn2)c1	-2	0.21
CCOCCNC(=O)c1cn2cc(-c3ccccc3Cl)n(C)c(=O)c2n1	-4	0.71
CN(C(=O)c1cnccn1)C1CCCCCC1	0	0.01
CCOC(=O)N1CCN(C(=O)c2cccn3c(=O)c4ccc(Cl)cc4nc23)CC1	-3	0.4
C=CCN1C[C@H](C)N(C(=O)CN2C(=O)CN(C)C2=O)C[C@@H]1C	3	-0.68
CN1C[C@@H](Cn2cnc(-c3ccccc3)c2CCc2ccccc2)CC1=O	-13	1.65

Compound	% Inhibition [%]	Z score
CC(C)(C)CC(=O)NCC(=O)N1CCCCCCC1	-3	0.47
OCCN(CCO)c1ccc(C(c2ccc(Cl)cc2)c2ccc(N(CCO)CCO)cc2Cl)c(Cl)c1	1	-0.23
Cc1ccc(CNC(=O)N2CCCC3(CCOCC3)C2)cc1	-8	1.07
Cc1cccc(-c2nsc3c(=O)n(CC(=O)Nc4ccc(C)c(Cl)c4)cnc23)c1	-5	0.8
CCc1nnc(NC(=O)[C@H]2CCCN(c3ncnc4onc(C)c34)C2)s1	-3	0.35
CCc1nc2c(c3n[nH]c(=O)n13)CCC2	-5	0.57
CNC(=O)c1noc(CN2CC[C@@H]3OCc4cccc(c4)Oc4cc(ccc4C)C(=O)N(C)CC(=O)N[C@@H]3C2)n1	-6	0.8
O=C(NC1CC1)c1cc(=O)c(OCc2ccccc2Cl)c[nH]1	-8	0.98
CC(=O)c1c(C)[nH]c(C(=O)N(C)Cc2nccn2C)c1C(C)C	1	-0.12
Cc1nc(C(F)(F)F)ccc1-c1csc(N)n1	-10	1.13
Brc1ccc(-c2noc(-c3ccccc3-c3ccccc3)n2)cc1	-17	2.03
Cc1ncccc1C(=O)Nc1ccncc1C(=O)C(C)C	11	-1.35
O=S(=O)(CC1CCCCC1)NCCN1CC2CCC(C1)O2	-8	1.03
CC(C)(C)c1c(Cl)c(O)c(-c2ccccc2)c(=O)n1-c1ccccc1	-5	0.7
CN(Cc1cccc(C#N)c1)CN1C(=O)NC(C2CC2)(C2CC2)C1=O	-1	0.22
CC(NC(=O)N(C1CC1)C(C)C1CC1)c1csc(C2CC2)n1 (stereo not drawn)	-8	0.86
O=C(c1cscc1C(F)(F)F)N1CC(CCO)C1	-11	1.36
N#CC1(C#N)[C@H](C(N)=O)[C@H]1c1ccccc1	-9	1.45
Cc1cccc2oc(CNC(=O)CCn3cnnc3)nc12	-11	1.24
CN(CCc1noc(C(F)(F)F)n1)C(=O)[C@H]1CCOc2ccccc2C1	-1	0.12
CS(=O)(=O)N1CCN(C(=O)N2CCN(Cc3ccccc3)CC2)CC1	-1	0.21

Compound	% Inhibition [%]	Z score
Cc1cc(C)c(OCC(N)=O)c(Cl)c1	-13	1.23
Cc1c(NC(=O)NCC2(C3CCC3)CCC2)nnn1C	-9	1.32
Cc1cc(C)n(Cc2cccc(F)c2)c1C(=O)Nc1ccc(F)cc1	4	-0.58
Cc1noc(-c2ccc(C(C)(C)C)cc2)c1C(=O)NCc1cccnc1	-11	1.8
O=C1CC2(CCN(S(=O)(=O)N3CCOCC3)CC2)CN1Cc1ccccc1	-8	1.75
CC(=O)Oc1cc(C(=O)Nc2ccc3c(c2)OCO3)cc(C(=O)Nc2ccc3c(c2)OCO3)c1	4	-0.63
O=C(Nn1cnnc1)C1CCN(S(=O)(=O)c2ccc(Cl)cc2)CC1	-14	1.53
COc1ccccc1N1CCN(CC(=O)N2CC[C@H](Oc3ccccn3)C2)C1=O	-6	1.15
CC(C)(C)c1ccc(=O)n(CC2CN(c3cnsn3)C2)n1	-16	2.38
O=C(NCc1cccnc1N1CCOCC1)N1CCCc2ccc(F)c(F)c21	-3	0.35
CC(=O)N(Cc1ccc(Cl)cc1)c1ccc2c(c1)nc(Cn1cccn1)n2C	30	-3.93
COc1ccccc1C1(CNC(=O)c2cccs2)CCOCC1	-5	0.81
Cc1cccc(CC(=O)N(C)C[C@H](C)C(=O)O)c1	-11	1.41
CN(C)Cc1ccccc1S(N)(=O)=O	-8	1.24
CS(=O)(=O)C[C@H]1CCCCN1C(=O)c1cc2c([nH]1)CCCC2	5	-0.77
CC1CN(Cc2ccccc2)CC1NC(=O)C1CCOCC1 (stereo not drawn)	-8	0.86
CN(C)C(=O)c1cccc(N2CCC3(CCCC3)C2)n1	-10	1.17
COc1ccc(C(=O)N2CCC3(CC2)C[C@@H](Cc2cccc(F)c2)CCO3)cc1F	-10	1.31
O=C(O)[C@@]12CC[C@@H](c3ccccc3)C[C@@H]1CN(CCCn1cnnn1)C2	-21	2.16
Cc1c(CN(C)CC(=O)NCc2cccs2)cnn1C	-4	0.83
Cc1nc(C)c(CCNC(=O)NCc2nc(C3CC3)no2)s1	-7	0.99
